Among all 110,000 compounds or so, about 230 (0.21%) showed an effect of 50% or more. This is one part of the list.
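Note: 30 min substrate incubation versus DMSO and 10 µM JCP410 controls.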

The target in this assay is DPAP1 (Plasmodium falciparum, UniProt Q8IIJ9). The experiment in a line: primary screen, percent inhibition; read by cleavage of a fluorogenic dipeptide substrate; higher = more effect of the substance. The arrangement: species or system P. falciparum D10 trophozoite lysates; single well.
Chain of DPAP1 (Q8IIJ9 whole entry, looked up): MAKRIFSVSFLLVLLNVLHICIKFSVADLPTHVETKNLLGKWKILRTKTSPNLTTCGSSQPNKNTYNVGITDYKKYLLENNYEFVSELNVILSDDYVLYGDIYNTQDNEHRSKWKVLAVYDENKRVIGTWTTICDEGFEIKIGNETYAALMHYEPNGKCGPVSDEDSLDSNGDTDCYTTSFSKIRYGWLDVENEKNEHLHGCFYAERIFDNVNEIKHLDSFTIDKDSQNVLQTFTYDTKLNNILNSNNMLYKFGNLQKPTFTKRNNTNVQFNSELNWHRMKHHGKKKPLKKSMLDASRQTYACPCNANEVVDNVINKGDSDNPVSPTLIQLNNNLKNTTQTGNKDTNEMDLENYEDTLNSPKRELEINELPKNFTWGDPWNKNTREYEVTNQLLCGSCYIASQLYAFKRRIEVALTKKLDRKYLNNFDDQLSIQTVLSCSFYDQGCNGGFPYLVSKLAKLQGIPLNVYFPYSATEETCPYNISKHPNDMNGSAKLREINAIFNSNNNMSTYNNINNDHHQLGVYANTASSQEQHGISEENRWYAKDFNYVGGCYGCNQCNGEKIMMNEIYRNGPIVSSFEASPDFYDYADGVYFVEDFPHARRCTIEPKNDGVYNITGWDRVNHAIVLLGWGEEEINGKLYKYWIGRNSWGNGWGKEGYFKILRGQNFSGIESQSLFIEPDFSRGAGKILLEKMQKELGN
As to `O=C1c2cc(Cl)c(Cl)cc2C(=O)N1CNc1ccccc1`, the “% Inhibition @ 10 uM” value is given as -9.67%.
As to `CCOC(=O)C1CCN(Cc2ccc(C(F)(F)F)cc2)CC1`, the “% Inhibition @ 10 uM” value is -0.127%.
In the case of `O=C(Nc1ccc(NC(=O)c2cccs2)cc1)c1cc2ccccc2o1`, the “% Inhibition @ 10 uM” value stood at 17.9%.
For the compound `O=c1cc(-c2ccc(O)c(O)c2)oc2ccccc12`, the “% Inhibition @ 10 uM” value was -4.65%.
Consider `COc1ccccc1/C=C(\C#N)c1nc(-c2ccc(C)cc2)cs1`, for which the “% Inhibition @ 10 uM” value is 5.68%.
Regarding `Cc1ccc(CNC(=O)Cn2c(=O)n(Cc3ccccc3)c(=O)c3c(C)c(C)sc32)cc1`, the “% Inhibition @ 10 uM” value is recorded as 10.4%.
Regarding `CCCCCn1c(=O)c(C(=O)Nc2ccc(F)cc2)c(O)c2ccccc21`, the “% Inhibition @ 10 uM” value was -4.76%.
Consider `C=CCc1c(C)nc2nc(SCC(=O)NCCc3ccccc3)nn2c1C`, for which the “% Inhibition @ 10 uM” value was 4.36%.
As for `OCC1CCCCN1Cc1ccnc2ccccc12` (centres unmarked), the figure is -3.5%; as for `CC1(C)CC2=NCN(CCCN3CCOCC3)CC2=C(O)C1`, 3.93%; as for `O=C(Nc1c(C(=O)c2ccc(F)cc2)oc2ccccc12)c1cccs1`, -3.14%.
`O=C(O)C1Cc2ccccc2CN1S(=O)(=O)c1cccs1` (centres unmarked): the “% Inhibition @ 10 uM” value was -0.251%.
Regarding `c1ccc(CCNC2CCCCCC2)nc1`, the “% Inhibition @ 10 uM” value came out at 3.15%.
As for `CC(C)C[C@H](NC(=O)c1ccc(N2CCN(C)CC2)cc1)C(=O)NC1(C#N)CCSC1` (some centres unmarked), the figure is -1.41%.
As for `COc1cc(CNC(=O)Cn2nc(C)c3c(C)n(-c4ccccc4)nc3c2=O)cc(OC)c1OC`, the “% Inhibition @ 10 uM” value worked out at 10.4%.
Regarding `Cc1ccc(-c2cn3nc(N4CCCC(C(=O)NCCC5=CCCCC5)C4)sc3n2)cc1` (centres unmarked), the “% Inhibition @ 10 uM” value stood at 4.91%.
Take `COc1ccc(-c2noc(NC3CCCc4ccccc43)n2)cc1OC` (centres unmarked): the “% Inhibition @ 10 uM” value came out at 3.27%.
For the compound `Cc1nn(-c2ccccc2)c(C)c1CC(=O)N(c1ccccc1)c1ccccc1`, the “% Inhibition @ 10 uM” value was found to be 1.7%.
As for `CC1(C)CC(=O)c2cc(-c3ccccc3)n(-c3ccccc3F)c2C1`, the figure is 0.132%; as for `N#CCc1ccc(NC(=O)CCc2ccccc2)cc1`, 1.72%; as for `COc1ccc(CN2CCN(Cc3ccc(OC)c(Br)c3)CC2)cc1`, 3.7%.
Consider `COc1ccc(C(=O)NCCn2cc(SCC(=O)NC3CCCCC3)c3ccccc32)cc1`, for which the “% Inhibition @ 10 uM” value is 0.231%.
For the compound `O=C(Nc1c(Cl)cc(Cl)cc1C(=O)NCC1CCCO1)c1ccco1` (centres unmarked), the “% Inhibition @ 10 uM” value was -1.41%.
`COc1ccccc1-c1c(C(F)(F)F)oc2c(CN(C)C)c(O)ccc2c1=O`: the “% Inhibition @ 10 uM” value stood at 1.58%.
On to `Cn1cccc1Cc1nnc(SCC(=O)NCc2ccco2)n1-c1ccccc1`, for which the “% Inhibition @ 10 uM” value is reported as -3.1%.
With `COc1ccccc1/C=C/c1nc(C#N)c(NCCN(C)C)o1`, the “% Inhibition @ 10 uM” value is on record as -4.39%.
With `CCC(CC)C(=O)N1CCN(C(=O)C(CC)CC)CC1`, the “% Inhibition @ 10 uM” value is on record as -9.31%.
For `CC(=O)Nc1nc(NC(C)=O)n(-c2ccccc2)n1`, the “% Inhibition @ 10 uM” value is listed as -1.6%.
`O=C(Cc1ccccc1)NCCc1nc2ccccc2[nH]1`: the “% Inhibition @ 10 uM” value was -0.0235%.
As for `COc1ccc(CCNCc2c(C(=O)O)n(Cc3ccccc3C)c3cc(C)ccc23)c(OC)c1`, the figure is 2.28%; as for `COc1ccccc1S(=O)(=O)Cc1ccc(C(=O)N2CCOCC2)o1`, 2.14%.
For `COc1cccc(-c2n[nH]c(SCc3cc(=O)n4oc(C)cc4n3)n2)c1`, the “% Inhibition @ 10 uM” value is 3.12%.
`Cc1nn2cc(-c3ccc(Cl)cc3)nc2s1`: the “% Inhibition @ 10 uM” value is -0.386%.
Take `COc1ccc(CNc2cc(C)ccn2)cc1`: the “% Inhibition @ 10 uM” value was -1.86%.
As for `COc1ccc(C(CC(=O)NCc2ccccn2)N2Cc3ccccc3C2=O)cc1` (centres unmarked), the “% Inhibition @ 10 uM” value was found to be 2.65%.
With `Cc1nc2ccccc2c(=O)n1-c1ccc(O)cc1`, the “% Inhibition @ 10 uM” value is on record as -4.82%.
As for `O=C(O)CC1NC(=O)c2ccccc21` (centres unmarked), the figure is -9.82%; as for `O=C1NC(=O)/C(=C\c2ccc(Br)cc2)S1`, -1.05%; as for `CC1CCN(c2c(NCc3ccc(C(=O)N4CC=C(c5ccccc5)CC4)cc3)c(=O)c2=O)CC1`, 2.76%.
For `CC(C)N(Cc1ccccc1)C(=O)c1ccccc1Br`, the “% Inhibition @ 10 uM” value came to 0.135%.
As for `COCCCN1C(=O)C(O)=C(C(=O)c2ccccc2)C1c1ccc(C(C)(C)C)cc1` (centres unmarked), the “% Inhibition @ 10 uM” value is listed as -3.34%.
As for `Cc1cc(/C=C2/C(=N)N3C(=NC2=O)SN=C3S(=O)(=O)CC(C)C)c(C)n1Cc1ccccc1`, the figure is 0.163%; as for `CCCCS(=O)(=O)N1CCC(Oc2ccc(-n3cnnn3)cc2)CC1`, 3.88%.
As to `CC1CCCN(CCCNC(=O)C2CCN(S(=O)(=O)N3CCC4(CC3)OCCO4)CC2)C1` (centres unmarked), the “% Inhibition @ 10 uM” value is given as 0.514%.
On to `CC1(C)CC(=O)C2=C(C1)OC(N)=C(C#N)C2c1ccc(Br)o1` (centres unmarked), for which the “% Inhibition @ 10 uM” value is reported as -3.13%.
As for `COc1c(I)cc(CC(NC(=O)OC(C)(C)C)C(=O)NCC#N)cc1I` (centres unmarked), the “% Inhibition @ 10 uM” value was -6.46%.
For `COc1cccc(C(=O)NCCC2=CCCCC2)c1`, the “% Inhibition @ 10 uM” value is -4.89%.
For `O=C(O)C1CSC(c2ccc(F)cc2)N1C(=O)Cc1ccc(Cl)cc1` (centres unmarked), the “% Inhibition @ 10 uM” value is -5.51%.
As for `N#Cc1cc2nc(O)[nH]c2cc1C#N`, the figure is 1.76%.
For `Cc1ccsc1/C=c1\sc2nc(-c3cccs3)nn2c1=O`, the “% Inhibition @ 10 uM” value is reported as -1.52%.
As to `CCNC(=O)CCSc1ccc(C(C)(C)C)cc1`, the “% Inhibition @ 10 uM” value was -0.425%.
Regarding `Cc1cc(NC(=O)c2ccc3c(Cl)c4c(nc3c2)CCCC4)no1`, the “% Inhibition @ 10 uM” value is 3.6%.
As for `Cc1ccc2c(CNCCc3ccco3)c(C(=O)O)n(Cc3ccccc3)c2c1`, the figure is 3.12%; as for `Cc1ccc(C)c(NCN2C(=O)C3CCCCC3C2=O)c1` (centres unmarked), 0.324%; as for `CC[C@H](NC(=O)[C@H](CS(=O)(=O)Cc1ccccc1)NC(=O)N1CCOCC1)C(=O)c1nccn1C`, -5.21%.
As for `CC1(C)CC(=O)c2cc(-c3ccccc3)n(-c3ccc(F)cc3)c2C1`, the figure is -3.14%; as for `CCC(C)NC(=O)C1(C)CCC(=O)N1CCc1ccc(C)cc1` (centres unmarked), -1.34%; as for `CSc1nc2c(cc1C#N)CCCC2`, -6.82%.
Regarding `Cc1ccc(-c2noc(/C=C/c3ccccc3)n2)cc1`, the “% Inhibition @ 10 uM” value was -3.06%.
As for `O=C(O)c1cc(NC(=O)C(c2ccccc2)c2ccccc2)cc(C(=O)O)c1`, the figure is 6.31%; as for `Cn1c(=O)c2c(ncn2CC(=O)Nc2cccnc2)n(C)c1=O`, 3.65%.
Consider `CCOC(=O)C1=C(CNCCc2ccc(OCC)cc2)NC(=O)NC1c1ccccc1` (centres unmarked), for which the “% Inhibition @ 10 uM” value is -1.3%.
With `Cc1ccccc1-c1cc(C(=O)N2CCOCC2)c2ccccc2n1`, the “% Inhibition @ 10 uM” value was -5.19%.
On to `CCN(Cc1ccccc1)C(=O)c1cc2c(=O)oc3ccccc3c2s1`, for which the “% Inhibition @ 10 uM” value was determined as 4.24%.
With `CCCC[C@H](NC(=O)[C@H](CC(C)C)NC(=O)OCc1ccccc1)C(=O)C1Cc2ccccc2C1=O` (some centres unmarked), the “% Inhibition @ 10 uM” value was -1.41%.

The values above are taken from publication PMC6919601, “Identification of Plasmodium dipeptidyl aminopeptidase allosteric inhibitors by high throughput screening” (PLoS ONE, 2019).
